The full ranking holds about 33,000 sequences; the median of “E-score (-0.5 to 0.5)” is about -0.054, and the highest 2% start at about 0.35. This is one part of the list.

In this test the target is T1, Stb5 (UniProt P38699).
T1 sequence: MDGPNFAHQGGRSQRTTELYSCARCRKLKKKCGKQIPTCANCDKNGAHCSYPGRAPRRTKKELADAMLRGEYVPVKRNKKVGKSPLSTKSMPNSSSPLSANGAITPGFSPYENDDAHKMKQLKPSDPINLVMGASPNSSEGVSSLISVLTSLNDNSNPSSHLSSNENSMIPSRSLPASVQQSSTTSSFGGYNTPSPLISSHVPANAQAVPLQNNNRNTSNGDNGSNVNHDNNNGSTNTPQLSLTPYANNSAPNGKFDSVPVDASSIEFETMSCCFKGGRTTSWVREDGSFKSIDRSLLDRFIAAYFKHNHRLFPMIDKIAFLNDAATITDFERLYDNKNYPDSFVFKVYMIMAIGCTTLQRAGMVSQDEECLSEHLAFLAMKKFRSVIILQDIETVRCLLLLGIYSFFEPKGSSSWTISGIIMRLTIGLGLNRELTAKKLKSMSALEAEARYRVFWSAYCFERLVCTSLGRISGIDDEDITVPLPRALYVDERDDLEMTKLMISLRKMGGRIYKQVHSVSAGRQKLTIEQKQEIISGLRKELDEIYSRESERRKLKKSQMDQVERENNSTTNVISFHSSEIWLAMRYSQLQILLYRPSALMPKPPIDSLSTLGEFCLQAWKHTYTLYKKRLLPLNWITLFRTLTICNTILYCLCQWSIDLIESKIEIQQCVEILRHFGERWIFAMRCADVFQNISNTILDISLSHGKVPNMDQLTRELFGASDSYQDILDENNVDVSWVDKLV
Nature of the test: PBM E-score (8-mer binding enrichment) (E-score (-0.5 to 0.5)); higher = stronger / more preferred TF binding; most listed sequences are background and not binding sites. As to conditions: protein concentration: 200 nM; construct: GST-full length. The method, boiled down:
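Masliner-normalised scans of fluorescent anti-GST signal were the basis for scoring. That signal came from GST-tagged yeast transcription factors applied at about 100-200 nM to double-stranded universal all-10-mer Agilent arrays on fresh or once-stripped slides. Each ungapped eight-base word, pooled with its reverse complement, received an E-score from the Universal PBM Analysis Suite.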
Consider AGTACCAT, for which the “PBM E-score” value was -0.112. ATAGGAGG: the “PBM E-score” value is -0.0657. Next, TGGAATAA: -0.14; AGGGTACC: -0.132. With GCGACATA the figure was -0.0427; with AAGATGGC, -0.0292. With AATTCACC the figure was 0.19. As to GATATCCC, the “PBM E-score” value is 0.251. Next, GATATGCA: -0.0266. Next, CAATGTGC: -0.0848; ACGGATCC: 0.211. With ATGATCGA the figure was -0.215; with GTCTGGAA, -0.16; with GACGTTAC, -0.0216.

With AAGGAGCG, the “PBM E-score” value stood at 0.0316.

Regarding CAACTTAA, the “PBM E-score” value was -0.0583. Next, CCTGTGCG: 0.00639. With CGATGTTA the figure was 0.197; with AGTAGAAA, 0.0506. Next, CACTTACC: 0.139. On to GAAGTAAC, for which the “PBM E-score” value was 0.0534.

Consider TGCCATAA, for which the “PBM E-score” value is -0.114.

As for CGGGGAAA, the “PBM E-score” value is 0.385.

As to GTGCAACA, the “PBM E-score” value was -0.135. Consider TACCCTAA, for which the “PBM E-score” value is -0.108. Regarding AGGTTTAT, the “PBM E-score” value was 0.166.

Take GTGTGATA: the “PBM E-score” value was 0.0767. For AAACTGAT, the “PBM E-score” value was -0.104. Next, GTAACAAC: 0.0449. Next, AAGTCTTA: -0.12; GCTAACAA: 0.00364. With GGCGTGCA the figure was -0.292; with TACACACA, -0.226; with CTAACAAA, -0.0818. As to GTGCATGA, the “PBM E-score” value was -0.08. CTCATCGC: the “PBM E-score” value was -0.0444. Consider CGTCGATC, for which the “PBM E-score” value came to 0.0531. As for ACCATAGA, the “PBM E-score” value was -0.0312. On to AACCAGTA, for which the “PBM E-score” value was -0.137. With AGATTGAT the figure was -0.0793; with GCATAGTA, 0.0728; with AAGACGTG, -0.145. Next, CATGTTGA: -0.0181; GCCGTCTA: 0.147; ATCTGTCG: 0.138. Turning to CCATGCTA, the “PBM E-score” value was -0.28. With TCTTCAAA the figure was -0.239. With ATCCCTTA the figure was -0.132; with GCCTACCA, -0.0157. With ATAATGAG, the “PBM E-score” value is -0.113. Regarding CACACCTG, the “PBM E-score” value is -0.19. With AGGCACGG the figure was 0.138; with CTCAGTTC, -0.39; with GACAGGAC, 0.018. With ACTCATCG the figure was 0.115; with GGCCAGGA, -0.264. Regarding CGTGTCCC, the “PBM E-score” value was -0.0774. As to GCTAACGA, the “PBM E-score” value is 0.00948. As to CATAAATG, the “PBM E-score” value is -0.202.

Consider AACTTACA, for which the “PBM E-score” value is -0.111.

Turning to CATCTTTC, the “PBM E-score” value is -0.238. With ACACCCAT, the “PBM E-score” value was -0.0903. Turning to GCGCTACA, the “PBM E-score” value was determined as 0.0449.

On to AATGGCGT, for which the “PBM E-score” value is -0.0532. With AAATTCCC the figure was 0.245. AAATGTCC: the “PBM E-score” value was found to be 0.343. Next, GGGGGATA: 0.13. Next, AAGGCACG: -0.0337; AAGTAAGA: -0.141. With GGTCCATA the figure was 0.0543. ATCCTGGA: the “PBM E-score” value was -0.135. With ATGATTTC the figure was -0.137; with GTGAAACA, -0.033. CCCCCAGG: the “PBM E-score” value is -0.281. On to CGTAAAAC, for which the “PBM E-score” value worked out at 0.157.

With GTAGCCTA, the “PBM E-score” value was -0.3. With CGACATTA the figure was 0.237; with GCATTGAA, -0.0445. As to GTAGCGAC, the “PBM E-score” value was 0.108.

In the case of GGCCTAGA, the “PBM E-score” value is -0.147. Take AGGTAGTC: the “PBM E-score” value was -0.2. AGCCAGAC: the “PBM E-score” value was -0.197. Next, ACTCTGAC: 0.0403; ACCCTCAC: -0.325; AAACCAGG: -0.00613. For the sequence GATTTCCA, the “PBM E-score” value is -0.122.

ATAGCTGA: the “PBM E-score” value was -0.075. For the sequence AAGCTAGA, the “PBM E-score” value is -0.389.

For the sequence CGCACCTC, the “PBM E-score” value was -0.0539. With GGAAGATA the figure was 0.0506; with CAGTTGCA, -0.245. For CATGTTAC, the “PBM E-score” value is -0.0955.

For the sequence GTAGCAAA, the “PBM E-score” value was -0.0214. Next, CAGCCCCG: 0.267.

The values above are taken from the supplement of paper PMC3334620.
